# The other results are listed elsewhere or left out.
# B1: CLEC5A (Homo sapiens), Q9NY25 (protein)
# chain: MNWHMIISGLIVVVLKVVGMTLFLLYFPQIFNKSNDGFTTTRSYGTVSQIFGSSSPSPNGFITTRSYGTVCPKDWEFYQARCFFLSTSESSWNESRDFCKGKGSTLAIVNTPEKLKFLQDITDAEKYFIGLIYHREEKRWRWINNSVFNGNVTNQNQNFNCATIGLTKTFDAASCDISYRRICEKNAK
# Key:
# Experiment in all cases: glycan array binding signal (z-score within array); higher = stronger binding
# Conditions in all cases: glycan notation: IUPAC condensed, linker removed
# [1] = biological target: Gal(b1-4)GlcNAc(b1-3)[Gal(b1-4)GlcNAc(b1-6)]Gal(b1-4)GlcNAc(b1-3)Gal(b1-4)Glc
# Summary of the method: (§1)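 The Consortium for Functional Glycomics database supplied 3228 glycan arrays, of which those lacking an available protein sequence were dropped. The binding signal, a within-array Z-score, was averaged across arrays of the same protein sequence and across linkers. Negative scores can be read as non-binding.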
# [2] = biological target: Gal(b1-4)GlcNAc(b1-3)[Gal(b1-4)GlcNAc(b1-6)]Gal(b1-4)GlcNAc(b1-3)[Gal(b1-4)GlcNAc(b1-6)]Gal(b1-4)GlcNAc(b1-3)Gal(b1-4)Glc
# Summary of the method: as §1
# [3] = biological target: Gal(b1-4)GlcNAc(b1-3)[Gal(b1-4)GlcNAc(b1-6)]Gal(b1-4)GlcNAc(b1-3)[Gal(b1-4)GlcNAc(b1-6)]Gal(b1-4)GlcNAc(b1-3)[Gal(b1-4)GlcNAc(b1-6)]Gal(b1-4)GlcNAc(b1-3)Gal(b1-4)Glc
# Summary of the method: as §1
# [4] = biological target: Gal(b1-4)GlcNAc(b1-3)[Gal(b1-4)GlcNAc(b1-6)]Gal(b1-4)GlcNAc(b1-3)[Gal(b1-4)GlcNAc(b1-6)]Gal(b1-4)GlcNAc(b1-3)[Gal(b1-4)GlcNAc(b1-6)]Gal(b1-4)GlcNAc(b1-3)[Gal(b1-4)GlcNAc(b1-6)]Gal(b1-4)GlcNAc(b1-3)Gal(b1-4)Glc
# Summary of the method: as §1
# [5] = biological target: Gal(b1-4)GlcNAc(b1-3)[Gal(b1-4)GlcNAc(b1-6)]GalNAc
# Summary of the method: as §1
# [6] = biological target: Gal(b1-4)GlcNAc(b1-3)[GlcNAc(b1-6)]Gal(b1-4)GlcNAc
# Summary of the method: as §1
# [7] = biological target: Gal(b1-4)GlcNAc(b1-6)Gal(b1-4)GlcNAc
# Summary of the method: as §1
# [8] = biological target: Gal(b1-4)GlcNAc(b1-6)Gal(b1-4)GlcNAc(b1-6)GalNAc
# Summary of the method: as §1
# [9] = biological target: Gal(b1-4)GlcNAc(b1-6)GalNAc
# Summary of the method: as §1
# [10] = biological target: Gal(b1-4)GlcNAc(b1-6)[Gal(b1-3)]GalNAc
# Summary of the method: as §1
# [11] = biological target: Gal(b1-4)GlcNAc(b1-6)[Gal(b1-4)GlcNAc(b1-3)]GalNAc
# Summary of the method: as §1
# Gal(b1-4)GlcNAc6P = biological target: Gal(b1-4)GlcNAc6P
# Summary of the method: as §1
# Gal(b1-6)Gal = biological target: Gal(b1-6)Gal
# Summary of the method: as §1
# Gal(b1-6)GalNAc = biological target: Gal(b1-6)GalNAc
# Summary of the method: as §1
# Gal3S(b1-3)GalNAc = biological target: Gal3S(b1-3)GalNAc
# Summary of the method: as §1
# [12] = biological target: Gal3S(b1-3)GalNAc(b1-4)Gal3S(b1-4)Glc
# Summary of the method: as §1
# Gal3S(b1-3)GlcNAc = biological target: Gal3S(b1-3)GlcNAc
# Summary of the method: as §1
# [13] = biological target: Gal3S(b1-3)[Fuc(a1-4)]GlcNAc
# Summary of the method: as §1
# [14] = biological target: Gal3S(b1-3)[Fuc(a1-4)]GlcNAc(b1-3)Gal(b1-4)Glc
# Summary of the method: as §1
# Gal3S(b1-4)Glc = biological target: Gal3S(b1-4)Glc
# Summary of the method: as §1
# Gal3S(b1-4)Glc6S = biological target: Gal3S(b1-4)Glc6S
# Summary of the method: as §1
# Gal3S(b1-4)GlcNAc = biological target: Gal3S(b1-4)GlcNAc
# Summary of the method: as §1
# [15] = biological target: Gal3S(b1-4)GlcNAc(b1-3)Gal
# Summary of the method: as §1
binder,measurement,setting,value
B1,glycan array binding signal (z-score),[1],-0.32
same,glycan array binding signal (z-score),[2],-0.32
same,glycan array binding signal (z-score),[3],-0.32
same,glycan array binding signal (z-score),[4],-0.32
same,glycan array binding signal (z-score),[5],0.073
same,glycan array binding signal (z-score),[6],-0.048
same,glycan array binding signal (z-score),[7],0.149
same,glycan array binding signal (z-score),[8],-0.064
same,glycan array binding signal (z-score),[9],0.525
same,glycan array binding signal (z-score),[10],-0.196
same,glycan array binding signal (z-score),[11],-0.112
same,glycan array binding signal (z-score),Gal(b1-4)GlcNAc6P,-0.162
same,glycan array binding signal (z-score),Gal(b1-6)Gal,-0.219
same,glycan array binding signal (z-score),Gal(b1-6)GalNAc,-0.32
same,glycan array binding signal (z-score),Gal3S(b1-3)GalNAc,0.133
same,glycan array binding signal (z-score),[12],-0.32
same,glycan array binding signal (z-score),Gal3S(b1-3)GlcNAc,-0.055
same,glycan array binding signal (z-score),[13],0.015
same,glycan array binding signal (z-score),[14],-0.32
same,glycan array binding signal (z-score),Gal3S(b1-4)Glc,0.053
same,glycan array binding signal (z-score),Gal3S(b1-4)Glc6S,0.097
same,glycan array binding signal (z-score),Gal3S(b1-4)GlcNAc,-0.162
same,glycan array binding signal (z-score),[15],-0.127

# From the supplement of paper PMC8728848
